Assay results: publication PMC12036557, “Functional Imaging of CYP3A4 at Multiple Dimensions Using an AI‐Driven High Performance Fluorogenic Substrate” (Small (Weinheim an Der Bergstrasse, Germany), 2025)

Columns and labels:
Format in all cases: biochemical, human
[1] = substrate: Cc1nc(CN2C(=O)c3cccc4cccc(c34)C2=O)cs1; experiment: Enzyme kinetic analyses of NFs 4-hydroxylation by hCYP3A4; settings: other: 4‐hydroxylation by hCYP3A4
[2] = substrate: CC(C)c1nc(CN2C(=O)c3cccc4cccc(c34)C2=O)cs1; experiment: as above; settings: other: 4‐hydroxylation by hCYP3A4
[3] = substrate: O=C1c2cccc3cccc(c23)C(=O)N1Cc1cscn1; experiment: as above; settings: other: 4‐hydroxylation by hCYP3A4
[4] = substrate: Cc1nc(CN2C(=O)c3cccc4cccc(c34)C2=O)cs1; experiment: Enzyme kinetic analyses of NFs 4-hydroxylation in HLMs; settings: other: 4-hydroxylation in HLMs
[5] = substrate: CC(C)c1nc(CN2C(=O)c3cccc4cccc(c34)C2=O)cs1; experiment: as above; settings: other: 4-hydroxylation in HLMs
[6] = substrate: O=C1c2cccc3cccc(c23)C(=O)N1Cc1cscn1; experiment: as above; settings: other: 4-hydroxylation in HLMs

B1: hCYP3A4 (Homo sapiens) (protein)
chain: MALIPDLAMETWLLLAVSLVLLYLYGTHSHGLFKKLGIPGPTPLPFLGNILSYHKGFCMFDMECHKKYGKVWGFYDGQQPVLAITDPDMIKTVLVKECYSVFTNRRPFGPVGFMKSAISIAEDEEWKRLRSLLSPTFTSGKLKEMVPIIAQYGDVLVRNLRREAETGKPVTLKDVFGAYSMDVITSTSFGVNIDSLNNPQDPFVENTKKLLRFDFLDPFFLSITVFPFLIPILEVLNICVFPREVTNFLRKSVKRMKESRLEDTQKHRVDFLQLMIDSQNSKETESHKALSDLELVAQSIIFIFAGYETTSSVLSFIMYELATHPDVQQKLQEEIDAVLPNKAPPTYDTVLQMEYLDMVVNETLRLFPIAMRLERVCKKDVEINGMFIPKGVVVMIPSYALHRDPKYWTEPEKFLPERFSKKNKDNIDPYIYTPFGSGPRNCIGMRFALMNMKLALIRVLQNFSFKPCKETQIPLKLSLGGLLQPEKPVVLKVESRDGTVSGA
notes: purchased Cypex
- kcat [1]: 4.19 ± 0.09 nmol/min/nmol hCYP3A4
- kcat [2]: 2.10 ± 0.04 nmol/min/nmol hCYP3A4
- kcat [3]: 11.42 ± 0.34 nmol/min/nmol hCYP3A4
- kcat/Km [3]: 857 µL min^−1/nmol hCYP3A4

B2: hCYP3A4 in HLMs (Homo sapiens) (protein)
chain: MALIPDLAMETWLLLAVSLVLLYLYGTHSHGLFKKLGIPGPTPLPFLGNILSYHKGFCMFDMECHKKYGKVWGFYDGQQPVLAITDPDMIKTVLVKECYSVFTNRRPFGPVGFMKSAISIAEDEEWKRLRSLLSPTFTSGKLKEMVPIIAQYGDVLVRNLRREAETGKPVTLKDVFGAYSMDVITSTSFGVNIDSLNNPQDPFVENTKKLLRFDFLDPFFLSITVFPFLIPILEVLNICVFPREVTNFLRKSVKRMKESRLEDTQKHRVDFLQLMIDSQNSKETESHKALSDLELVAQSIIFIFAGYETTSSVLSFIMYELATHPDVQQKLQEEIDAVLPNKAPPTYDTVLQMEYLDMVVNETLRLFPIAMRLERVCKKDVEINGMFIPKGVVVMIPSYALHRDPKYWTEPEKFLPERFSKKNKDNIDPYIYTPFGSGPRNCIGMRFALMNMKLALIRVLQNFSFKPCKETQIPLKLSLGGLLQPEKPVVLKVESRDGTVSGA
notes: Pooled human liver microsomes from 50 donors; tissue Bioreclamation IVT lot No. X008067; host or cells: pooled human liver microsomes (50 donors)
- Km [4]: 9.51 ± 1.20 µM
- kcat [4]: 1.04 ± 0.05 nmol/min/nmol hCYP3A4
- kcat/Km [4]: 109.36 μL/min/nmol hCYP3A4
- Km [5]: 3.44 ± 0.20 µM
- kcat [5]: 0.46 ± 0.01 nmol/min/nmol hCYP3A4
- kcat/Km [5]: 133.72 μL/min/nmol hCYP3A4
- Km [6]: 13.78 ± 1.71 µM
- kcat [6]: 1.75 ± 0.09 nmol/min/nmol hCYP3A4
- kcat/Km [6]: 127.00 μL/min/nmol hCYP3A4
